Assay results published in PubChem BioAssay AID1645887 (National Center for Advancing Translational Sciences (NCATS), 2021).
Several values for one entry are separate records, joined by “and”; a condition that tells them apart may be missing. Equal entries are not always repeated. Among all 16,000 compounds or so, about 40 (0.2%) were called active. Not shown: some 1% with an inconclusive outcome. Calls come from the whole dose curve; as a rule, active = well fitted activation curve with a large enough effect; inconclusive = small, poorly fitted or top-dose-only effect, or another doubt; inactive = no such curve, though single readings can be large or run the other way. The list shows a part of the results.

Biological target: Rap guanine nucleotide exchange factor 4 (Homo sapiens) (UniProt Q8WZA2)
UniProt Q8WZA2, sequence (Q8WZA2 whole entry, looked up): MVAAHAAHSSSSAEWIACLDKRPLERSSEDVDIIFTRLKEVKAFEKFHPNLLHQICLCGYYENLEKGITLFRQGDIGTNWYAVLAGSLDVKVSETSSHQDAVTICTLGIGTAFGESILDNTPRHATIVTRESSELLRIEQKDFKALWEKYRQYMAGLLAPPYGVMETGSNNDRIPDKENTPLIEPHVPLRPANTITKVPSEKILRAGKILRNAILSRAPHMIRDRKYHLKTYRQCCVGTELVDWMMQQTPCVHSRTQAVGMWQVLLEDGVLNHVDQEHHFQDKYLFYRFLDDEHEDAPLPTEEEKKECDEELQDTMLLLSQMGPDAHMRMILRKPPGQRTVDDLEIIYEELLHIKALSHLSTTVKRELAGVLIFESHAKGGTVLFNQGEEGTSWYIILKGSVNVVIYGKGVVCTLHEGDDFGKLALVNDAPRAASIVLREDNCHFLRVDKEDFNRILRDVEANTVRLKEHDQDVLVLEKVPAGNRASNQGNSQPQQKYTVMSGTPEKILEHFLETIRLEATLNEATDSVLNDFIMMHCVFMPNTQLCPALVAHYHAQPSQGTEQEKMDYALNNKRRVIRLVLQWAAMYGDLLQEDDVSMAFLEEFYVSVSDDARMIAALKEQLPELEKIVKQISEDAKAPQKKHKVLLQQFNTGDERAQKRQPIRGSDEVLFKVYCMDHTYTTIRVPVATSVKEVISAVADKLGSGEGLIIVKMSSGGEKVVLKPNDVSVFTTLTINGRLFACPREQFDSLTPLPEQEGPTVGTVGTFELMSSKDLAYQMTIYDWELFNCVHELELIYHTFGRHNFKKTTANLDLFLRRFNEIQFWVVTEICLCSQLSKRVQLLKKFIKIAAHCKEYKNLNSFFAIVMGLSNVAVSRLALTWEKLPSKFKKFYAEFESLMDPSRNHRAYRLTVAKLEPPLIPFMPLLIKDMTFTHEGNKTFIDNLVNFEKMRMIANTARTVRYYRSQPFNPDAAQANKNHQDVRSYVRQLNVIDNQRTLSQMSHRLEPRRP
Experiment: Validation qHTS for agonist of cAMP-regulated guanine nucleotide exchange factor 4 (EPAC2);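 note: exchange makes BODIPY-GDP fluorescence drop when released from Rap1B; series mostly up to about 150 µM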
Settings: EPAC2 Rap1B BODIPY-GDP exchange, fluorescence; activation: stronger effect = higher value
From the text: Principle Investigator: Xiaodong Cheng Ph.D.
The University of Texas Medical Branch, […], TX
In multi-cellular eukaryotic organisms, the effects of cAMP are transduced by two ubiquitously-expressed intracellular cAMP receptors, the classic protein kinase A/cAMP-dependent protein kinase (PKA/cAPK) and the more recently discovered exchange protein directly activated by cAMP/cAMP-regulated guanine nucleotide exchange factor (EPAC/cAMP-GEF). Both PKA and EPAC are ubiquitously expressed in all tissues, and an increase in intracellular cAMP levels will lead to the activation of both PKA and EPAC. Therefore, careful dissections of the individual role and relative contribution of EPAC and PKA within the overall cAMP signaling in various model systems are critical for further elucidating the mechanism of cAMP signaling. To date no EPAC-specific antagonists and agonist, as well as isoform-specific agonists have been reported, and developing EPAC-specific pharmacological probes to determine the physiological functions that EPAC play in the overall cAMP-mediated signaling remains a major challenge within the research field. Furthermore, identified regulators of EPAC may lead to new mechanism-based therapeutic strategies specifically targeting the EPAC / cAMP-signaling components as EPAC has been implicated to play important roles in major human pathological conditions such as diabetes, heart disease, and cancer.
This qHTS will be used to screen the Molecular Libraries Small Molecule Repository (MLSMR) as a concentration-titration series using the NCGC unique quantitative screening (qHTS) platform to find activators for EPAC1. In addition, this assay will also be used as a counterscreen for the EPAC2 qHTS. This fluorescent based assay is developed and validated for EPAC1 that measures exchange using EPAC effector Rap1 complex with BODIPY-GDP, a GDP analog with a tethered fluorophores. Activators are identified by monitoring the change in fluorescence signal as the exchanged free BODIPY-GDP has a reduced fluorescence compared to Rap1-bound BODIPY-GDP. Increase in signal (activation) is the desired outcome for the EPAC1 agonist while no activity in this assay is desired for the EPAC2 agonist counterscreen.
[1] de Rooij, J., Zwartkruis, F. J., Verheijen, M. H., Cool, R. H., Nijman, S. M., Wittinghofer, A., and Bos, J.L. (1998) Nature 396, 474-477.
Briefly, three uL of reagents (100 nM EPAC2, 250 nM RAP1B-BODIPY-GDP, 50 uM GDP) were dispensed into a 1536-well Greiner black solid-bottom medium binding assay plate. Controls and test compounds (23 nL) were transferred to the plate via a Kalypsys pin tool equipped with a 1536-pin array. The plates were centrifuged at 1,000 rpm for 15 seconds followed by 5 minute incubation at room temperature. The assay plates were read at 5 minute intervals for 30 minutes in the ViewLux plate reader using 480nm excitation and 540nm emission filters. The results were normalized to the agonist positive control of 6.5 mM cAMP.
% is set by controls: 0 for no effect and ±100 for the full control effect.

activation, inactive:
COC(=O)c1ccc(CN2CCOc3ccc(CN4CCC(O)(c5cccnc5)CC4)cc3C2)cc1 -2.32%
CCCCOc1cc(C(=O)NCCN(CC)CC)c2ccccc2n1 -0.398% and 18.4%
NC(N)=NCC1COC2(CCCCC2)O1 (stereo not given) -8.72%
Cn1c(=O)c(-c2ccc(F)cc2)nc2cnc(Nc3ccccc3)nc21 -3.77%
C/C(=C(\CCOC(=O)c1ccccc1)SS/C(CCOC(=O)c1ccccc1)=C(/C)N(C=O)Cc1cnc(C)nc1N)N(C=O)Cc1cnc(C)nc1N 6.07%
CC(=O)OCC1OC(n2cnc3c(=O)[nH]cnc32)C(OC(C)=O)C1OC(C)=O (stereo not given) -9.19%
CC(C)C1=CC2=CC[C@@H]3[C@@](C)(C(=O)O)CCC[C@]3(C)C2CC1 (stereo not given in full) -0.645%
COC(=O)[C@H](CC(C)C)NS(=O)(=O)NC(=O)OC(C)(C)C -11.2%
CCNc1ncc2nc(C)c(=O)n(C[C@H]3CCCO3)c2n1 4.79%
CCC1(C2CCN(C(=O)c3coc4c3C(=O)CCC4)CC2)NC(=O)N(CCc2scnc2C)C1=O (stereo not given) -9.81%
COc1ccc(CN2CC[C@H]3C=CC[C@@H](C(=O)NCCc4ccccc4)[C@H]3C2=O)cc1OC -27.9%
O=C1CCc2cc(OCCCCc3nnnn3C3CCCCC3)ccc2N1 -17.1% and 1.43% and -12.7%
CCS(=O)(=O)CCn1c([N+](=O)[O-])cnc1C -23.2% and -0.787%
Cc1noc(C)c1-c1nc(NC2CCNCC2)c2ccccc2n1 5.23%
COc1cc(=O)n2c(c1C(=O)N(C)Cc1nccs1)CCN(Cc1ccc(F)c(F)c1)CC2 -27.8%
Cc1ccc(C(=O)Nc2cccc(-c3nc(CNC(=O)c4ccc5ccccc5n4)c(C)o3)c2)s1 1.07%
CCn1nc(C)c(CN2Cc3ccccc3OC(c3ccccc3OC)C2)c1C (stereo not given) 2.55%
O=C(O)c1ccccc1-c1ccc(C(F)(F)F)cc1 -12.6%
Nc1ncnc2c1ncn2CCOCP(=O)(O)O -10.5%
O=C(c1cccc(F)c1)N1CCC[C@@]2(CCN(Cc3ccccc3)C2)C1 -0.52%
CC(C)CN1CCCC2(CCN(C(=O)c3ccco3)CC2)C1 -13.2%
Nc1nc2c(c(=O)[nH]1)N(C=O)C(CNc1ccc(C(=O)NC(CCC(=O)O)C(=O)O)cc1)CN2 (stereo not given) 1.39%
O=C(Nc1ccccc1)N1CCCC2(CCNCC2)C1 -6.47%
CN(C)c1ccc(-c2nc(NCc3cccnc3)c3ccccc3n2)cc1 -1.51%
CCCCCCCC/C=C\CCCCCCCC(=O)NCCc1ccc(O)c(O)c1 -106%
Cn1cccc1C(=O)N1CCC2(CC1)CCN(c1ccc(-c3ccccc3)cc1)CC2 -9.07%
CN(Cc1ccco1)c1cc(-c2ccc3c(c2)OCO3)ncn1 -14%
O=C1C(c2ccccn2)=[N+]([O-])c2ccccc21 1.59%
Cc1nc(NS(=O)(=O)c2ccc(N)cc2)nc(C)c1Br -5.41%
CC(=O)N(CC(C)C(=O)O)c1c(I)cc(I)c(N)c1I (stereo not given) -19.7%
CC(=O)OCC1=C(C(=O)O)N2C(=O)[C@@H](NC(=O)CSc3ccncc3)[C@H]2SC1 0.586%
CCNc1ncc2nc(-c3ccc(F)cc3)c(=O)n(Cc3ccc(F)cc3)c2n1 -1.53%
COc1ccccc1-c1cc(=O)c2cc(O)ccc2o1 -5.44%
Cn1c(=O)c(CCc2ccccc2)nc2cnc(N3CCOCC3)nc21 -1.68%
Cc1ccc2c(n1)Oc1ccc(C(C)C(=O)OCC(=O)N(C)C)cc1C2 (stereo not given) -15.1% and -4.86%
O=C(O)COc1ccc(OCCNC[C@@H](O)COc2ccccc2)cc1 -11.3%
Nc1nc2[nH]c(=O)c(=O)[nH]c2c(=O)[nH]1 -3.75%
COc1ccc2[nH]cc(CCNc3ccnc(-c4ccc5c(c4)OCO5)n3)c2c1 1.31%
CCCCCCCCCCCCCCC(C(=O)OC)C(O)(CC(=O)OC)C(=O)OC (stereo not given) -44.9%
CCCCCCCCCCCCCCNCCO -19.2%
N#Cc1cccc(NC(=O)N2CC[C@@]3(CCCN(C(=O)c4csnn4)C3)C2)c1 -10.4%
COC(=O)c1c(-c2cc(OC)c(OC)c(OC)c2)c2ccnc(OCc3ncccn3)c2c(=O)n1Cc1ccnc(C)c1 7.25%
CCCCN1CC[C@H]2C=CC[C@@H](C(=O)N3CCN(c4ccccc4)CC3)[C@H]2C1=O 0.637%
OC[C@H]1O[C@@H](n2cnc3c(NC4CCCCC4)ncnc32)[C@H](O)[C@@H]1O 9.24% and -13.9%
O=C(Nc1ccccc1)N1CC[C@@]2(CCCN(C(=O)c3cnccn3)C2)C1 5.6%
COc1cccc(-c2nc(NCc3cnc(C)cn3)c3ccccc3n2)c1 4.25%
COc1cc(C(=O)NC2CCCNC2)cc(OC)c1OC (stereo not given) -8.98%
O=C(c1cnn(-c2nccc(-c3ccccc3F)n2)c1C1CC1)N1CCN(CCO)CC1 -4.66%
Oc1ccc2c(c1)OCC1(O)Cc3cc(O)c(O)cc3C21 (stereo not given) -5.97%
C=C1CCC(O)C/C1=C\C=C1/CCCC2(C)C1CCC2C(C)CCCC(C)C (stereo not given) -52.7%
c1cncc(-c2ccc3ncnc(NC4CCNCC4)c3c2)c1 -1.31%
Cc1nc2cnc(N3CCN(C)CC3)nc2n(C2CC2)c1=O -11.1%
CC(NC(=O)C1CCOCC1)c1nnc2n1CCN(Cc1ccc(F)cc1)CC2 (stereo not given) -19.4%
O=C1CCN(Cc2cccnc2)CCN1[C@H](CO)Cc1ccccc1 -10.9%
CC(C)(O)C1CC[C@@]2(C)C3CCC4[C@@]5(C)CCCC(C)(C)C5C(O)C[C@]4(C)[C@]3(C)CC[C@@H]12 (stereo not given in full) -13.1%
